This experiment addresses PIM3 (Homo sapiens, UniProt Q86V86). The experiment in a line: 33P-ATP filter-binding kinase assay.

For orientation: IC50 means the concentration that gives 50% inhibition. On to `CC(Sc1nc2c(cnn2-c2cccc(Cl)c2)c(=O)[nH]1)C(N)=O` (centres unmarked) [HS38], for which the IC50 (mean ± S.D., n = 2) turned out to be 200 ± 60 nM. Besides, the activity at 10 µM (read-out: % Activity (10 μM HS38)) amounted to 24%.
